From a collection of fitness landscapes (doi:10.1016/j.celrep.2020.107928)
The full ranking holds about 81,000 sequences; the median of “one-hybrid fitness for binding parS DNA” is about -0.17, and the highest 2% start at about 0.51. The list shows a part of the results.

B1: Caulobacter ParB omega fusion; a variant is named by its letters at X, in order, B8GW30 (parent)
chain: MESVVVGEPGMSEGRRGLGRGLSALLGEVDAAPAQAPGEQLGGSREAPIEILQRNPDQPRRTFREEDLEDLSNSIREKGVLQPILVRPSPDTAGEYQIVAGERAWRAAQRAGLKTVPIMVRELDDLAVLEIGIIENVQRADLNVLEEALSYKVLMEKFERTQENIAQTIGKSXSHVANXMRLLXLPDEVQSYLVSGELTAXHARAIAAAADPVALAKQIIEGGLSVRETEALARKAPNLSAGKSKGGRPPRVKDTDTQALESDLSSVLGLDVSIDHRGSTGTLTITYATLEQLDDLCNRLTRGI

Variants of: B1
Test: one-hybrid fitness for binding parS DNA (scaled: cognate 1, non-cognate 0); higher = stronger binding
Conditions: with parS DNA site
In short: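 Fitness is the rescaled log change in variant-to-wild-type read ratio, measured by Illumina sequencing of plasmids before and after bacterial one-hybrid selection. The scale puts cognate at 1 and non-cognate at 0. Selection of Caulobacter ParB libraries, four specificity codons randomised, took place in E. coli USO with a HIS3 reporter, site 19 bp from the promoter, over 48 hours at 37°C on M9-minus-histidine with 0.1 mM IPTG and 5 mM 3-AT.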

Variant | one-hybrid fitness for binding parS DNA
PFTL | ≤ 0.2
LRSN | ≤ 0.2
IHTA | ≤ 0.2
FEMV | ≤ 0.2
NPRA | ≤ 0.2
RTML | ≤ 0.2
GTNT | ≤ 0.2
NKIR | ≤ 0.2
NHVY | ≤ 0.2
VLGN | ≤ 0.2
QERR | ≤ 0.2
PMQT | ≤ 0.2
KNCR | ≤ 0.2
SIIS | ≤ 0.2
AVFR | ≤ 0.2
YNTC | ≤ 0.2
KPIL | ≤ 0.2
EAET | ≤ 0.2
RNFV | ≤ 0.2
HNDR | ≤ 0.2
QKLG | ≤ 0.2
RRDC | 0.701
HWKS | ≤ 0.2
WKSD | ≤ 0.2
LGSL | ≤ 0.2

Variant | one-hybrid fitness for binding parS DNA
ETNW | ≤ 0.2
IKRC | ≤ 0.2
GQFS | ≤ 0.2
EAFR | ≤ 0.2
PPHI | ≤ 0.2
KMLP | ≤ 0.2
TFLV | ≤ 0.2
NHSS | ≤ 0.2
CYGC | ≤ 0.2
RQVP | ≤ 0.2
YHWW | ≤ 0.2
IMII | ≤ 0.2
GCQT | ≤ 0.2
RGEE | ≤ 0.2
KTNG | ≤ 0.2
RDKR | ≤ 0.2
HQHW | ≤ 0.2
GNRT | ≤ 0.2
SDNI | ≤ 0.2
NADC | ≤ 0.2
REQR | ≤ 0.2
CMRA | ≤ 0.2
SMAG | ≤ 0.2
QYIG | ≤ 0.2
VMEC | ≤ 0.2

Variant | one-hybrid fitness for binding parS DNA
PLIS | ≤ 0.2
RIWA | 0.539
EPDY | ≤ 0.2
VPLN | ≤ 0.2
EYGT | ≤ 0.2
GTKL | ≤ 0.2
PQLQ | ≤ 0.2
VPHW | ≤ 0.2
IQQI | ≤ 0.2
LPLP | ≤ 0.2
QKTL | ≤ 0.2
SNWF | ≤ 0.2
YLSG | ≤ 0.2
WMDN | ≤ 0.2
GRPS | ≤ 0.2
PYQM | ≤ 0.2
RRKF | ≤ 0.2
IHSV | ≤ 0.2
SCDN | ≤ 0.2
KMCG | ≤ 0.2
GGWD | ≤ 0.2
AGMD | ≤ 0.2
GGKA | ≤ 0.2
NTDN | ≤ 0.2
PHPC | ≤ 0.2

Variant | one-hybrid fitness for binding parS DNA
VCTP | ≤ 0.2
CKNR | ≤ 0.2
PSYL | ≤ 0.2
CACK | ≤ 0.2
KIQT | ≤ 0.2
RQWE | ≤ 0.2
RLRC | 0.846
TVQR | ≤ 0.2
AVMW | ≤ 0.2
TYHT | ≤ 0.2
KGWR | ≤ 0.2
PWYT | ≤ 0.2
KAPD | ≤ 0.2
NDGT | ≤ 0.2
RCPN | 0.24
TYGS | ≤ 0.2
TITF | ≤ 0.2
WYEF | ≤ 0.2
EEFL | ≤ 0.2
QFRL | ≤ 0.2
SVKT | ≤ 0.2
NEVT | ≤ 0.2
SAII | ≤ 0.2
QMYI | ≤ 0.2
LSSP | ≤ 0.2

Variant | one-hybrid fitness for binding parS DNA
GATF | ≤ 0.2
IHKS | ≤ 0.2
KTCE | ≤ 0.2
PTHI | ≤ 0.2
HWII | ≤ 0.2
LMDS | ≤ 0.2
YAIL | ≤ 0.2
MMKM | ≤ 0.2
GSKL | ≤ 0.2
IYIR | ≤ 0.2
VQMF | 0.218
KKQY | ≤ 0.2
YPFW | ≤ 0.2
FIRV | ≤ 0.2
QVWM | ≤ 0.2
SIYT | ≤ 0.2
IRTG | ≤ 0.2
NLNG | ≤ 0.2
IKSG | ≤ 0.2
PCFV | ≤ 0.2
RWFG | 0.615
FDYG | ≤ 0.2
GLPN | ≤ 0.2
MFCL | ≤ 0.2
GCMA | ≤ 0.2

Variant | one-hybrid fitness for binding parS DNA
PFKD | ≤ 0.2
YLWC | ≤ 0.2
AYKR | ≤ 0.2
KQYT | ≤ 0.2
TSKM | ≤ 0.2
TPYG | ≤ 0.2
DGCR | ≤ 0.2
CKRH | ≤ 0.2
TLLL | ≤ 0.2
LREP | ≤ 0.2
DFFL | ≤ 0.2
HWTQ | 0.216
EPVY | ≤ 0.2
HESC | ≤ 0.2
YYET | ≤ 0.2
YHRT | ≤ 0.2
QWVS | ≤ 0.2
TVGA | ≤ 0.2
MYKS | ≤ 0.2
LEET | ≤ 0.2
FKHA | ≤ 0.2
IREN | ≤ 0.2
ERYR | ≤ 0.2
RICM | 0.373
NQTE | ≤ 0.2

Variant | one-hybrid fitness for binding parS DNA
VDEY | ≤ 0.2
TCHE | ≤ 0.2
IVGR | ≤ 0.2
SYNQ | ≤ 0.2
MVEF | ≤ 0.2
AMWM | ≤ 0.2
KERF | ≤ 0.2
AKTQ | ≤ 0.2
LNEG | ≤ 0.2
QRKR | ≤ 0.2
RSNA | 0.596
LFLF | ≤ 0.2
SVPR | ≤ 0.2
RCHV | ≤ 0.2
RYGY | 0.42
VNAY | ≤ 0.2
CMTL | ≤ 0.2
RLGE | ≤ 0.2
RSRR | ≤ 0.2
HLMC | ≤ 0.2
MKSY | ≤ 0.2
APNA | ≤ 0.2
ISTD | ≤ 0.2
VVIG | ≤ 0.2
PGVG | ≤ 0.2

Variant | one-hybrid fitness for binding parS DNA
HTEV | ≤ 0.2
VRFI | ≤ 0.2
TWPT | ≤ 0.2
MQLE | ≤ 0.2
TAEV | ≤ 0.2
LILF | ≤ 0.2
HHVG | ≤ 0.2
YRPC | ≤ 0.2
MEPD | ≤ 0.2
FSDF | ≤ 0.2
SAPN | ≤ 0.2
RQSY | 0.465
TLGA | ≤ 0.2
QPTN | ≤ 0.2
RNRY | 0.503
CRVA | ≤ 0.2
EDKS | ≤ 0.2
VVYR | ≤ 0.2
AWQW | ≤ 0.2
CTQM | ≤ 0.2
